# Assay results: PubChem BioAssay (Tox21)
# Where “and” joins values, the source holds several entries; their conditions need not be identical. Identical values can stand only once. Inconclusive results, whose numbers are uncertain, are shown with a selection of clear calls. For some of these results: Where the call is inconclusive, the potency comes from a doubtful curve fit. Some structures have more than one record in an assay (separate samples or runs), and their calls can disagree. Calls of active or inactive are those of the source. Unless noted, calls come from the whole dose curve; as a rule, active = well fitted curve in the direction sought with a large enough effect in the repeat runs; inconclusive = weak or mixed curves; inactive = no such curve, though single readings can be large; an effect the other way counts as inactive or inconclusive.
# Experiments:
# [1] = target: Nuclear receptor ROR-gamma (Homo sapiens) (UniProt P51449); assay: qHTS assay to identify small molecule antagonists of the retinoid-related orphan receptor gamma (ROR-gamma) signaling pathway (AID 1159521; note: nearly all actives have a fitted effect of over 50% in size; note: potency is the fitted concentration of half-maximal effect)
# Outline: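 Cells were plated, rested 4 h at 37 C, exposed to compounds for 2 h, then given 1 uM final doxycycline hyclate to induce RORγ expression. After 16 h, ONE-Glo luminescence from the ROR response element reporter was measured.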
# [2] = qHTS assay to identify small molecule agonists of the AP-1 signaling pathway (AID 1159526; calls by dose curve; note: potency is the fitted concentration of half-maximal effect; for activation: % is set by controls: 0 for no effect and ±100 for the full control effect); details: ME-180 (cervical carcinoma) AP-1-bla reporter, beta-lactamase FRET ratio, 5 h
# [3] = target: Retinoic acid receptor RXR-alpha (Homo sapiens) (UniProt P19793); assay: qHTS assay to identify small molecule agonists of the RXR signaling pathway (AID 1159527; calls by dose curve; note: nearly all actives have a fitted effect of over 35% in size; note: potency is the fitted concentration of half-maximal effect; for activation: % is set by controls: 0 for no effect and ±100 for the full control effect); details: HEK293T RXRa-UAS-bla, beta-lactamase ratio, 16 h; activation: at 76.8 µM (top of the series) unless noted
# Outline: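 Cells plated at 2,000/well, rested 5 hr at 37 C, pin-dosed with DMSO compound solutions, incubated 16 hr, then loaded with B/G FRET substrate for 2 hr at RT before dual-emission fluorescence reading.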
# [4] = qHTS assay to identify small molecule agonists of the retinoic acid receptor (RAR) signaling pathway (AID 1159553); details: C3RL4 RARE luciferase reporter, agonist, 6 h; activation: at 73.3 µM (top of the series) unless noted; note: potency is the fitted concentration of half-maximal effect; for activation: % is set by controls: 0 for no effect and ±100 for the full control effect
# Outline: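 Cell line C3RL4, RARE luciferase reporter. Treatment: compounds in DMSO, 6 hr, 37 C, 5% CO2, after overnight plating. Detection: luminescence, 30 min RT after reagent.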
# [5] = qHTS assay to identify small molecule antagonists of the estrogen related receptor (ERR) signaling pathway from Tox21 library - cell viability counter screen (AID 1224834); note: nearly all actives have a fitted effect of over 30% in size; note: potency is the fitted concentration of half-maximal effect
# Outline: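 Viability readout (CellTiter-Fluor fluorescence, 30 min at 37 C) multiplexed with the ERR assay; cells treated 17.5 h at 37 C with compounds delivered in DMSO.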
# [6] = qHTS assay to identify small molecule agonists of the AP-1 signaling pathway - cell viability counter screen (AID 1159525; calls by dose curve; note: potency is the fitted concentration of half-maximal effect; nearly all actives have a fitted effect of over 55% in size)
# Outline: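 AP-1-bla ME-180 cells in Opti-MEM with 0.5% dialyzed FBS, compound exposure 5 h at 37 C in 15-point titration. Viability read in the same wells as ATP content by CellTiter-Glo luminescence, normalised to tetra-n-octylammonium bromide and DMSO controls.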
# [7] = qHTS assay to identify small molecule agonists of the RXR signaling pathway - cell viability counter screen (AID 1159529); note: potency is the fitted concentration of half-maximal effect; nearly all actives have a fitted effect of over 50% in size
# Outline: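 Steps: seed RXR-alpha-UAS-bla HEK 293T cells in assay medium containing 2% charcoal-stripped FBS; incubate 5 hr; add compounds in DMSO; incubate 16 hr at 37 C; after the bla read, add CellTiter-Glo and read luminescence at 30 min.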
# [8] = qHTS assay to identify small molecule antagonists of the retinoid-related orphan receptor gamma (ROR-gamma) signaling pathway - cell viability counter screen (AID 1159520); note: potency is the fitted concentration of half-maximal effect; nearly all actives have a fitted effect of over 50% in size
# Outline: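 Tet-on ROR gamma CHO cells were given compounds for 2 hr, then doxycycline hyclate at 1 uM final, and incubated 16 hr at 37 C. Viability was measured as ATP content by CellTiter-Glo luminescence.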
# [9] = target: Luciferin 4-monooxygenase (Photinus pyralis) (UniProt P08659); assay: qHTS assay to identify small molecule inhibitors of firefly luciferase (AID 1224835); note: % is set by controls: 0 for no effect and ±100 for the full control effect; nearly all actives have a fitted effect of over 25% in size
# Outline: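 Biochemical qHTS: compounds run as interplate titrations against purified firefly enzyme, with D-luciferin and ATP each at its KM concentration. Light output recorded by CCD imaging.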
# [10] = qHTS assay to identify small molecule agonists of the constitutive androstane receptor (CAR) signaling pathway - cell viability counter screen (AID 1224836); note: nearly all actives have a fitted effect of over 45% in size; note: potency is the fitted concentration of half-maximal effect
# Outline: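 Cells were seeded and incubated 4 hrs. Compounds were added across 15 concentrations together with PK11195 at 0.75 uM final. Plates were incubated 23 hrs at 37 C. CellTiter-Fluor was added and fluorescence measured.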
# [11] = qHTS assay to identify small molecule antagonists of the constitutive androstane receptor (CAR) signaling pathway - cell viability counter screen (AID 1224837); note: nearly all actives have a fitted effect of over 45% in size; note: potency is the fitted concentration of half-maximal effect
# Outline: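 Fluorescence from CellTiter-Fluor served as the viability signal. Human hepatoma HepG2 cells stably bearing hCAR and CYP2B6-2.2kb received compound plus CITCO (50 nM final) for 23 hr.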
# [12] = qHTS assay to identify small molecule antagonists of the retinoic acid receptor (RAR) signaling pathway (AID 1159552; note: nearly all actives have a fitted effect of over 50% in size; note: potency is the fitted concentration of half-maximal effect)
# Outline: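 Retinol at 1 uM final stimulated RARE-luciferase expression in C3RL4 cells exposed to test compounds for 6 hr at 37 C. Reduced luminescence, read 30 min after detection reagent, indicated pathway antagonism.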
# [13] = qHTS assay to identify small molecule agonists of the estrogen related receptor (ERR) signaling pathway (AID 1224820); note: % is set by controls: 0 for no effect and ±100 for the full control effect
# Outline: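 Cells: ERR line from NTP, 2,000/well. Pre-incubation 6 h, 37 C/5% CO2. Compound (DMSO) pin transfer, 18 h 37 C. One-Glo, 30 min RT, luminescence.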
# [14] = qHTS assay to identify small molecule antagonists of the retinoid acid receptor (RAR) signaling pathway - cell viability counter screen (AID 1159551); note: potency is the fitted concentration of half-maximal effect; nearly all actives have a fitted effect of over 35% in size
# Outline: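 Following overnight attachment, C3RL4 reporter cells received DMSO-dissolved compounds and then retinol (1 uM final). Six hours later at 37 C, ATP content was measured by CellTiter-Glo luminescence.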
# [15] = activation: at 76.8 µM (top of the series) unless noted
# Tags give direction and shape of the fitted curve or compound fluorescence and quenching.
# UniProt P19793, sequence (P19793 whole entry, looked up): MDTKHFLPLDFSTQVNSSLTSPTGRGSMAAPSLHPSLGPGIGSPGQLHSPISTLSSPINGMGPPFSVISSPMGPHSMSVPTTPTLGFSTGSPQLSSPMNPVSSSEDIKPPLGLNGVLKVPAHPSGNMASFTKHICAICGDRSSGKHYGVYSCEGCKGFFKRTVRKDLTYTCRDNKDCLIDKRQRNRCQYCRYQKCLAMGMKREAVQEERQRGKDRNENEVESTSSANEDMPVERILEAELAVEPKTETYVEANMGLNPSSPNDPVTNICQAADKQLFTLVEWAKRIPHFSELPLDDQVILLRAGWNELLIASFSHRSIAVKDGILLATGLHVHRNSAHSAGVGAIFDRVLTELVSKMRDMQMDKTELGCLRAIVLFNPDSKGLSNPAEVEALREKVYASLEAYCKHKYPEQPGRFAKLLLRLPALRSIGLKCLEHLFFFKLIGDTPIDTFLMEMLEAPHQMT
# UniProt P08659, sequence (P08659 whole entry, looked up): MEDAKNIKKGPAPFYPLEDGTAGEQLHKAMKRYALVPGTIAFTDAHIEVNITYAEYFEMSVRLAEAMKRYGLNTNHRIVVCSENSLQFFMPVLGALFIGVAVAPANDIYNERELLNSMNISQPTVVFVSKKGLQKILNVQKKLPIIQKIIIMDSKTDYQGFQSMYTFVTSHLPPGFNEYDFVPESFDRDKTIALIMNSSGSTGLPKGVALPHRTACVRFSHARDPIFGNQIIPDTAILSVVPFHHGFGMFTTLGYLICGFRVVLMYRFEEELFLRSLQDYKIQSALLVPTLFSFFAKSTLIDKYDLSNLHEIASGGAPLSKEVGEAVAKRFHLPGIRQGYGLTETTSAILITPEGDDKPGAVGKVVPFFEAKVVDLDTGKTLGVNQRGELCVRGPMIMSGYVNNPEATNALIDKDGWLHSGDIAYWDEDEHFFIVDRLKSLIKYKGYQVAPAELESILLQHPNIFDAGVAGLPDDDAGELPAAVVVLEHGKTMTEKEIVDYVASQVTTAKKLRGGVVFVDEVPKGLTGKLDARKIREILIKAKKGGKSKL
smiles,measurement,setting,value
Oc1ccc(-c2ccccc2)cc1,Potency,[1],inactive
same,activation,[2]; [15],inconclusive: 20.9%
same,activation,[2]; at 76.8 µM (top of the series),inactive: 16.1%
same,Potency,[3],active: 5.42 µM
same,Potency,[4],"inconclusive: 42.7 µM [activator, partial curve, poor fit] and inconclusive: 38.6 µM [activator, partial curve, poor fit]"
same,Potency,[5],"inconclusive: 75.9 µM [cytotoxic, single point]"
CC(C)CCCCCCCOP(=O)(Oc1ccccc1)Oc1ccccc1,Potency,[1],"inconclusive: 30.8 µM [inhibitor, full curve]"
same,Potency,[6],"inconclusive: 24.7 µM [cytotoxic, single point]"
same,Potency,[2]; [15],inconclusive: 22 µM
same,Potency,[3],"inconclusive: 5.52 µM [inhibitor, single point]"
same,Potency,[7],"inconclusive: 27.7 µM [cytotoxic, partial curve, poor fit]"
O=C(O)C1C2CCC(O2)C1C(=O)O (centres undefined),Potency,[8],"inconclusive: 31 µM [cytotoxic, partial curve]"
same,activation,[3],inconclusive: -31.2%
same,activation,[4],inconclusive: -8.47% [phenotype inactive] [at 94.8 µM]
same,Potency,[5],"inconclusive: 55.1 µM [cytotoxic, partial curve] and inconclusive: 62.8 µM [cytotoxic, single point]"
same,Potency,[9],inactive
same,Potency,[10],"inconclusive: 55.1 µM [cytotoxic] and inconclusive: 44.5 µM [cytotoxic, partial curve]"
same,Potency,[11],"inconclusive: 49.2 µM [cytotoxic, partial curve] and inconclusive: 56 µM [cytotoxic]"
O=[N+]([O-])c1c(Cl)c(Cl)cc(Cl)c1Cl,Potency,[1],"inconclusive: 6.86 µM [inhibitor, single point]"
same,Potency,[2]; [15],inconclusive: 43.6 µM
same,activation,[3],inconclusive: -12.5%
same,Potency,[7],inconclusive: 54.9 µM [cytotoxic]
same,Potency,[12],inactive
same,Potency,[13],inactive
CCCN(CCC)c1c([N+](=O)[O-])cc(C(F)(F)F)cc1[N+](=O)[O-],Potency,[1],inactive
same,Potency,[6],"inconclusive: 24.5 µM [cytotoxic, partial curve, poor fit]"
same,activation,[3],inconclusive: -26.9% and inconclusive: -30%
CCN1CCC2(CC1)COc1cc3c(cc12)N(C(=O)c1ccc(-c2ccc(-c4nnc(C)o4)cc2C)cc1)CC3,Potency,[8],active: 28.3 µM
same,Potency,[3],"inconclusive: 18 µM [rising, partial curve]"
same,Potency,[7],active: 3.59 µM
same,Potency,[14],"inconclusive: 63.3 µM [cytotoxic, single point]"
same,Potency,[12],active: 56.4 µM
same,Potency,[4],"inconclusive: 63.3 µM [inhibitor, partial curve]"
same,Potency,[5],active: 17.8 µM
c1cc[c]([Hg][c]2ccccc2)cc1,Potency,[1],active: 19.3 µM
same,Potency,[2]; [15],"inconclusive: 13.8 µM [falling, partial curve, poor fit]"
same,Potency,[3],"inconclusive: 17.4 µM [rising, partial curve]"
same,Potency,[7],"inconclusive: 34.7 µM [cytotoxic, partial curve]"
same,Potency,[4],active: 8.63 µM
same,Potency,[5],"inconclusive: 38.6 µM [cytotoxic, partial curve]"
CN=CNc1ccc(C)cc1C,Potency,[1],inactive
same,Potency,[12],inactive
same,Potency,[4],inactive
CC(C)(c1ccc(OCC2CO2)cc1)c1ccc(OCC2CO2)cc1 (centres undefined),Potency,[1],inconclusive: 69.5 µM [inhibitor] and inactive
same,Potency,[2]; [15],"inconclusive: 43.6 µM [falling, partial curve, poor fit]"
same,Potency,[12],"inconclusive: 55.2 µM [inhibitor, partial curve]"
same,Potency,[4],inactive
same,Potency,[5],"inconclusive: 61.9 µM [cytotoxic, single point]"
C=CCN1C[C@H](C)N([C@H](c2ccc(C(=O)N(CC)CC)cc2)c2cccc(OC)c2)C[C@H]1C,Potency,[1],inactive
same,Potency,[10],inconclusive: 33.5 µM [cytotoxic]
same,Potency,[11],"inconclusive: 33.5 µM [cytotoxic, single point]"
O=c1nc(O)n(Cl)c(=O)n1Cl,Potency,[1],"inconclusive: 6.86 µM [inhibitor, single point]"
same,Potency,[10],inactive
c1ccc2cc3c(cc2c1)-c1cccc2cccc-3c12,Potency,[1],"inconclusive: 0.0191 µM [inhibitor, full curve, poor fit]"
same,Potency,[2]; [15],inconclusive: 4.3 µM [fluorescent]
same,Potency,[3],"inconclusive: 12.1 µM [fluorescent, partial curve]"
same,Potency,[12],inactive
CC(C)[C@H](C(=O)OC(C#N)c1cccc(Oc2ccccc2)c1)c1ccc(OC(F)F)cc1 (some centres undefined),Potency,[1],"inconclusive: 61.1 µM [inhibitor, partial curve]"
same,Potency,[2]; [15],"inconclusive: 43.6 µM [falling, partial curve]"
same,Potency,[11],inactive
Cc1ccc(OP(=O)(Oc2ccc(C)cc2)Oc2ccc(C)cc2)cc1,Potency,[1],"inconclusive: 0.0545 µM [inhibitor, full curve, poor fit]"
same,Potency,[2]; [15],"inconclusive: 15.5 µM [activator, full curve, poor fit]"
same,Potency,[14],"inconclusive: 30.6 µM [cytotoxic, partial curve]"
same,Potency,[5],"inconclusive: 24.3 µM [cytotoxic, partial curve]"
same,Potency,[10],"inconclusive: 27.3 µM [cytotoxic, partial curve]"
same,Potency,[11],"inconclusive: 48.5 µM [cytotoxic, partial curve]"
COP(=O)(OC)O/C(=C\Cl)c1cc(Cl)c(Cl)cc1Cl,Potency,[1],active: 38.6 µM
same,Potency,[2]; [15],"inconclusive: 49 µM [falling, partial curve, poor fit]"
same,Potency,[3],"inconclusive: 4.36 µM [inhibitor, full curve]"
same,Potency,[5],"inconclusive: 48.6 µM [cytotoxic, partial curve]"
C=CC1(C)OC(=O)N(c2cc(Cl)cc(Cl)c2)C1=O (centres undefined),Potency,[6],inconclusive: 61.3 µM [cytotoxic]
same,Potency,[2]; [15],inconclusive: 24.4 µM [single point] and inactive
same,Potency,[3],inconclusive: 21.8 µM
same,activation,[3],inconclusive: -21%
same,Potency,[7],active: 34.5 µM
same,Potency,[14],"inconclusive: 54.2 µM [cytotoxic, partial curve, poor fit]"
same,Potency,[5],inactive
CC(C)[C@H](C(=O)O[C@H](C#N)c1cccc(Oc2ccccc2)c1)c1ccc(Cl)cc1,Potency,[1],"inconclusive: 43.2 µM [inhibitor, partial curve]"
same,Potency,[2]; [15],"inconclusive: 30.9 µM [falling, partial curve, poor fit]"
same,Potency,[3],"inconclusive: 12.3 µM [inhibitor, partial curve, poor fit]"
same,Potency,[11],inactive
Clc1cccc(Cl)c1,Potency,[1],"active: 30.4 µM and inconclusive: 2.17 µM [inhibitor, partial curve]"
same,Potency,[2]; [15],inconclusive: 54.5 µM [activator]
same,activation,[3],inconclusive: -17.4% and inconclusive: 24%
same,Potency,[14],"inconclusive: 68.1 µM [cytotoxic, partial curve, poor fit]"
COC(=O)NC(=S)Nc1ccccc1NC(=S)NC(=O)OC,Potency,[1],inactive
same,activation,[3],inconclusive: 15.3%
same,Potency,[11],inactive
O=C(O)c1cc[c]([Hg][Cl])cc1,Potency,[6],inconclusive: 54.9 µM [cytotoxic]
same,Potency,[2]; [15],"inconclusive: 11 µM [falling, partial curve]"
same,Potency,[3],"inconclusive: 1.1 µM [fluorescent, full curve, poor fit]"
same,Potency,[7],active: 43.6 µM
same,Potency,[14],"inconclusive: 77 µM [cytotoxic, single point]"
same,Potency,[5],active: 13.7 µM
same,Potency,[10],inconclusive: 61.1 µM [cytotoxic]
same,Potency,[11],active: 54.5 µM
CCc1cccc(CC)c1N(COC)C(=O)CCl,Potency,[1],"inconclusive: 33.3 µM [inhibitor, partial curve] and inconclusive: 61.1 µM [inhibitor, partial curve, poor fit]"
same,Potency,[12],"inconclusive: 66.4 µM [inhibitor, single point] and inconclusive: 68.6 µM [inhibitor, single point]"
same,Potency,[4],inconclusive: 66.4 µM [inhibitor] and inconclusive: 77 µM [inhibitor]
same,Potency,[5],"inconclusive: 59.1 µM [cytotoxic, partial curve] and inconclusive: 68.6 µM [cytotoxic, single point]"
same,Potency,[11],inactive
CC1(C)C(C(=O)OC(C#N)c2cccc(Oc3ccccc3)c2)C1(C)C (centres undefined),Potency,[1],"active: 48.9 µM and inconclusive: 61.1 µM [inhibitor, single point]"
same,Potency,[3],"inconclusive: 27.7 µM [rising, partial curve, poor fit]"
same,activation,[3],inconclusive: 1.49%
same,Potency,[5],"inconclusive: 54.9 µM [cytotoxic, partial curve]"
C[C@]12CC[C@H](O)CC1=CC[C@@H]1[C@@H]2CC[C@]2(C)C(=O)CC[C@@H]12,Potency,[1],"inconclusive: 21.1 µM [inhibitor, partial curve, poor fit]"
same,Potency,[3],"inconclusive: 24.6 µM and inconclusive: 17.4 µM [fluorescent, full curve] and inconclusive: 23.9 µM"
same,Potency,[7],"inconclusive: 12.3 µM [cytotoxic, partial curve, poor fit]"
same,Potency,[5],"inconclusive: 61.2 µM [cytotoxic, single point] and inconclusive: 68.6 µM [cytotoxic]"
